{"source": "patent US20250304706A1", "about": "(Astellas, published 2025)", "binders": {"B1": {"name": "BTE-0082 (bispecific antibody)", "chain 1": "QVQLVESGGGVVQPGGSLRLSCAASGFTFSSYGMHWVRQAPGKGLEWVAVIWYDGRNKYYADSVKGRFTISRDNSKNTLYLQMNSLRAEDTAVYYCTRDHSGSGSYYIDYWGQGTLVTVSSASTKGPSVFPLAPSSKSTSGGTAALGCLVKDYFPEPVTVSWNSGALTSGVHTFPAVLQSSGLYSLSSVVTVPSSSLGTQTYICNVNHKPSNTKVDKKVEPKSCDKTHTCPPCPAPEAAGGPSVFLFPPKPKDTLMISRTPEVTCVVVDVSHEDPEVKFNWYVDGVEVHNAKTKPREEQYNSTYRVVSVLTVLHQDWLNGKEYKCKVSNKALAAPIEKTISKAKGQPREPQVYTLPPSRDELTKNQVSLSCAVKGFYPSDIAVEWESNGQPENNYKTTPPVLDSDGSFFLVSKLTVDKSRWQQGNVFSCSVMHEALHNHYTQKSLSLSPGK", "chain 2": "EIAMTQSPATLSVSPGERATLSCRASQSVSSNLAWYQQKPGQAPRLLIYGASTRATGLPARFSGSGSGTEFTLTISSLQSEDFAVYYCQQYNNFWTFGQGTKVEIKRTVAAPSVFIFPPSDEQLKSGTASVVCLLNNFYPREAKVQWKVDNALQSGNSQESVTEQDSKDSTYSLSSTLTLSKADYEKHKVYACEVTHQGLSSPVTKSFNRGEC", "chain 3": "EVQLVESGGGLIQPGGSLRLSCAASGFTFNTYAMSWVRQAPGKGLEWVARIRSKYNNYATYYADSVKDRFTISRDDSKSTLYLQMNNLRAEDTAVYYCVRHGNFGNSYVSWFAYWGQGTLVTVSSGKPGSGKPGSGKPGSGKPGSQAVVTQEPSLTVSPGGTVTLTCRSSTGAVTTSNYANWVQQKPGQAPRGLIGGTNKRAPGVPARFSGSLLGDKAALTLSGAQPEDEAEYYCALWYSNLWVFGGGTKVTVL[human IgG1 Fc with C220S L234A L235A P329A T366W (EU numbers) cut from this listing]"}, "B2": {"name": "BTE-0084 (bispecific antibody)", "chain 1": "QVQLVESGGGVVQPGGSLRLSCAASGFTFSSYGMHWVRQAPGKGLEWVAVIWYDGRNKYYADSVKGRFTISRDNSKNTLYLQMNSLRAEDTAVYYCTRDHSGSGSYYIDYWGQGTLVTVSSASTKGPSVFPLAPSSKSTSGGTAALGCLVKDYFPEPVTVSWNSGALTSGVHTFPAVLQSSGLYSLSSVVTVPSSSLGTQTYICNVNHKPSNTKVDKKVEPKSCDKTHTCPPCPAPEAAGGPSVFLFPPKPKDTLMISRTPEVTCVVVDVSHEDPEVKFNWYVDGVEVHNAKTKPREEQYNSTYRVVSVLTVLHQDWLNGKEYKCKVSNKALAAPIEKTISKAKGQPREPQVYTLPPSRDELTKNQVSLSCAVKGFYPSDIAVEWESNGQPENNYKTTPPVLDSDGSFFLVSKLTVDKSRWQQGNVFSCSVMHEALHNHYTQKSLSLSPGK", "chain 2": "EIAMTQSPATLSVSPGERATLSCRASQSVSSNLAWYQQKPGQAPRLLIYGASTRATGLPARFSGSGSGTEFTLTISSLQSEDFAVYYCQQYNNFWTFGQGTKVEIKRTVAAPSVFIFPPSDEQLKSGTASVVCLLNNFYPREAKVQWKVDNALQSGNSQESVTEQDSKDSTYSLSSTLTLSKADYEKHKVYACEVTHQGLSSPVTKSFNRGEC", "chain 3": "EVQLVESGGGLIQPGGSLRLSCAASGFTFNTYAMAWVRQAPGKGLEWVARIRSKYNNYATYYADSVKDRFTISRDDSKSTLYLQMNNLRAEDTAVYYCVRHGNFGNSYVSWFAYWGQGTLVTVSSGKPGSGKPGSGKPGSGKPGSQAVVTQEPSLTVSPGGTVTLTCRSSTGAVTTSNYANWVQQKPGQAPRGLIGGTNKRAPGVPARFSGSLLGDKAALTLSGAQPEDEAEYYCALWYSNLWVFGGGTKVTVL[human IgG1 Fc with C220S L234A L235A P329A T366W (EU numbers) cut from this listing]"}}, "biological_target": "T1, CD3εδ complex protein (human; alpaca, UniProt P07766 23-126; P04234 22-105)", "T1 construct": "they are not part of the secreted protein; also called human CD3; CD386 complex protein", "sequence (P07766 23-126 limits assumed, stated change not applied, form in doubt, chain 1 of 2)": "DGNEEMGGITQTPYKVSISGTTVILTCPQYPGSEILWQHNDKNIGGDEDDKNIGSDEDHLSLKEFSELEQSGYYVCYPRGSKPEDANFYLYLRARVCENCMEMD", "sequence (P04234 22-105 limits assumed, stated change not applied, form in doubt, chain 2 of 2, further chain)": "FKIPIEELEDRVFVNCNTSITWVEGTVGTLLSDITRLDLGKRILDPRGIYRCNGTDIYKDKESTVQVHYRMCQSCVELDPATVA", "test": "ELISA, CD3 complex immobilized", "how_it_was_run": "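Bispecific anti-TSPAN8/anti-CD3 antibodies bound to immobilized CD3εδ complex protein in ELISA, detected with HRP anti-human IgG Fc and TMB absorbance. EC50 from a four-parameter variable-slope fit, top fixed at plate maximum and bottom at blank; reference antibody averaged across plates.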"}
{"binder": "B1", "values": [{"measurement": "EC50", "value": 0.322, "unit": "µg/mL"}]}
{"binder": "B2", "values": [{"measurement": "EC50", "value": 0.036, "unit": "µg/mL"}]}
